# Assay results from the supplement of paper PMC9135407.
# Where “and” joins values, the source holds several entries; their conditions need not be identical. Equal values may be shown once. Where a name gives a salt, the structure may show the parent alone. The campaign covered roughly 5,800 compounds. About 620 (11%) showed activity.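 The calls were made as follows: active = score above a cut-off or among the top three wells of a plate; in these data no inactive exceeds 0.85.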 This is a selection; strong and weak results do not stand in their true shares.
# Tested on: primary human hepatic stellate cells (donor 1)
# Experiment: scaled lipid accumulation score (0 = DMSO-like, 1 = nortriptyline-like); higher = stronger HSC inactivation (lipid re-accumulation), active = hit call of the paper
# Conditions: 48 h
# [1] = library stock concentration: 10 mM
# [2] = library stock concentration: 1 mM
# [3] = library stock concentration: 3.33 mM
# [4] = library stock concentration: 80 uM
# [5] = library stock concentration: 400 uM
# [6] = library stock concentration: 2 mM
compound,measurement,setting,value
COc1ccc(C(=O)/C(Br)=C\C(=O)O)cc1 [Bromebric acid],scaled lipid accumulation score,library stock concentration: 7 mM,inactive: ≤ -0.006
CCN(CC)CCOC(=O)C(Cc1cccc2ccccc12)CC1CCCO1 (configuration not stated) [Nafronyl oxalate],scaled lipid accumulation score,,inactive: 0.312
same,scaled lipid accumulation score,[1],inactive: ≤ -0.027
NC(=O)N1C(=O)/C(=C(\O)c2cccs2)c2cc(Cl)ccc21 [Tenidap],scaled lipid accumulation score,[1],inactive: ≤ -0.001
CC/C=C\C/C=C\C/C=C\C/C=C\C/C=C\CCCC(=O)O[C@H](COCCCCCCCCCCCCCCCC)COP(=O)([O-])OCC[N+](C)(C)C [Eicosapentaenoyl PAF C-16],scaled lipid accumulation score,[2],inactive: ≤ 0
CC1(C)S[C@@H]2[C@H](NC(=O)C(C(=O)O)c3ccccc3)C(=O)N2[C@H]1C(=O)O (some centres not stated) [Carbenicillin disodium],scaled lipid accumulation score,[3],inactive: ≤ 0
same,scaled lipid accumulation score,library stock concentration: 4.7 mM,inactive: ≤ -0.001
same,scaled lipid accumulation score,[1],inactive: ≤ -0.001 and inactive: ≤ 0
Cc1cc(OCCCS(C)(=O)=O)cc(C)c1-c1cccc(COc2ccc3c(c2)OC[C@H]3CC(=O)O)c1,scaled lipid accumulation score,[3],inactive: 0.029
same,scaled lipid accumulation score,[1],inactive: 0.138
C=C[C@@]1(C)CC(=O)[C@]2(O)[C@@]3(C)[C@@H](O)CCC(C)(C)[C@@H]3[C@H](O)[C@H](OC(C)=O)[C@@]2(C)O1 [Colforsin],scaled lipid accumulation score,library stock concentration: 4.9 mM,inactive: ≤ 0
same,scaled lipid accumulation score,[1],inactive: ≤ -0.027
C=C[C@@]1(C)CC(=O)[C@]2(O)[C@@]3(C)[C@@H](O)CCC(C)(C)[C@@H]3[C@H](O)[C@H](OC(C)=O)[C@@]2(C)O1 [Forskolin],scaled lipid accumulation score,[3],inactive: ≤ 0
same,scaled lipid accumulation score,[1],inactive: ≤ 0 and inactive: ≤ -0.07 and inactive: 0.019
same,scaled lipid accumulation score,library stock concentration: 12.2 mM,inactive: ≤ -0.012
CN(Cc1cnc2nc(N)nc(N)c2n1)c1ccc(C(=O)NC(CCC(=O)O)C(=O)O)cc1 (racemic) [Methotrexate(+/-)],scaled lipid accumulation score,library stock concentration: 4.4 mM,inactive: 0.043
same,scaled lipid accumulation score,[1],inactive: ≤ 0
O=C(CCCCCN1C(=O)c2cccc3cccc(c23)C1=O)NO [Scriptaid],scaled lipid accumulation score,[3],inactive: 0.343
same,scaled lipid accumulation score,[1],inactive: 0.57 and inactive: 0.396
Cc1ccc(NC2=CC(=O)c3sc(C)nc3C2=O)cc1 [Ryuvidine],scaled lipid accumulation score,[1],active: 0.904
C/C(=C(\CCOP(=O)(O)O)SC(=O)c1ccccc1)N(C=O)Cc1cnc(C)nc1N [Benfotiamine],scaled lipid accumulation score,,inactive: ≤ 0
same,scaled lipid accumulation score,[1],inactive: ≤ 0
COc1cc2/c(=N/c3ccc(Br)cc3F)nc[nH]c2cc1OCC1CCN(C)CC1 [Vandetanib (ZD6474)],scaled lipid accumulation score,[1],inactive: 0.754
COc1cc2/c(=N/c3ccc(Br)cc3F)nc[nH]c2cc1OCC1CCN(C)CC1 [Vandetanib],scaled lipid accumulation score,[4],inactive: 0.09
same,scaled lipid accumulation score,[5],inactive: 0.381
"COc1cc2/c(=N/c3ccc(Br)cc3F)nc[nH]c2cc1OCC1CCN(C)CC1 [Vandetanib  (ZD6474, Zactima) (10 mM)]",scaled lipid accumulation score,[1],inactive: 0.445
"Nc1c2c(nc3ccccc13)CCCC2 [9-Amino-1,2,3,4-tetrahydroacridine hydrochloride]",scaled lipid accumulation score,[1],inactive: 0.401
Nc1c2c(nc3ccccc13)CCCC2 [Tacrine (hydrochloride)],scaled lipid accumulation score,[2],inactive: 0.026
Nc1c2c(nc3ccccc13)CCCC2,scaled lipid accumulation score,library stock concentration: 9.7 mM,inactive: 0.039
Nc1c2c(nc3ccccc13)CCCC2 [Tacrine hydrochloride],scaled lipid accumulation score,[1],inactive: 0.064
CCCCC(CC)COC(=O)C(C#N)=C(c1ccccc1)c1ccccc1 (configuration not stated),scaled lipid accumulation score,[1],inactive: 0.062
CCCCCCCCCCCCCCCCOC[C@H](CO)OC(C)=O [Hexadecyl Acetyl Glycerol],scaled lipid accumulation score,[2],inactive: ≤ 0
Clc1ccc2c(c1)C(N1CCNCC1)=Nc1ccccc1O2 [Amoxapine],scaled lipid accumulation score,[1],active: 1.05
O=c1sn(-c2cccc3ccccc23)c(=O)n1Cc1ccccc1 [Tideglusib],scaled lipid accumulation score,[4],inactive: ≤ 0
same,scaled lipid accumulation score,[5],inactive: 0.037
same,scaled lipid accumulation score,[6],inactive: 0.351
same,scaled lipid accumulation score,[1],inactive: 0.769
COc1ccc2c(c1)c(C1=C(c3c[nH]c4ccccc34)C(=O)NC1=O)cn2CCCN(C)C,scaled lipid accumulation score,[2],inactive: 0.018
same,scaled lipid accumulation score,[3],inactive: 0.054 and inactive: ≤ 0
same,scaled lipid accumulation score,[1],inactive: 0.706
O=c1cc(-c2ccccc2)oc2cc(O)cc(O)c12 [Chrysin],scaled lipid accumulation score,,inactive: 0.048
same,scaled lipid accumulation score,[3],inactive: ≤ 0
same,scaled lipid accumulation score,[1],inactive: ≤ 0 and inactive: 0.161
O=C(/C=C/c1ccc(O)c(O)c1)c1ccc(O)cc1O [Butein],scaled lipid accumulation score,[3],inactive: ≤ -0.009
same,scaled lipid accumulation score,[1],inactive: 0.299
CC[C@H]1OC(=O)C[C@@H](O)[C@H](C)[C@@H](O[C@@H]2O[C@H](C)[C@@H](O[C@H]3C[C@@](C)(O)[C@@H](O)[C@H](C)O3)[C@H](N(C)C)[C@H]2O)[C@@H](CC=O)C[C@@H](C)C(=O)/C=C/C(C)=C/[C@@H]1CO[C@@H]1O[C@H](C)[C@@H](O)[C@@H](OC)[C@H]1OC [Tylosin tartrate],scaled lipid accumulation score,[1],inactive: 0.119
"O=C(CCCCCCC(=O)Nc1ccccc1)NO [Vorinostat (SAHA, MK0683)]",scaled lipid accumulation score,[3],inactive: 0.513
same,scaled lipid accumulation score,[1],inactive: 0.397
O=C(CCCCCCC(=O)Nc1ccccc1)NO [Vorinostat],scaled lipid accumulation score,[4],inactive: ≤ 0
same,scaled lipid accumulation score,[5],inactive: ≤ 0
same,scaled lipid accumulation score,[6],inactive: ≤ 0
same,scaled lipid accumulation score,[1],inactive: 0.451
O=C(CCCCCCC(=O)Nc1ccccc1)NO,scaled lipid accumulation score,[1],inactive: 0.632
CCc1ccc2c(-c3cccc(Cl)c3)nc(=O)n(CC)c2n1,scaled lipid accumulation score,[1],inactive: ≤ 0 and inactive: 0.01
CNS(=O)(=O)c1ccc(NC(=O)c2ccccc2C(=O)O)cc1 [Phthalysulfathiazole],scaled lipid accumulation score,library stock concentration: 4.8 mM,inactive: ≤ 0
CCCCCC(O)C=CC1C=CC(=O)C1CCCCCCC(=O)O (configuration not stated) [8-iso Prostaglandin A1],scaled lipid accumulation score,[2],inactive: ≤ 0
CCCCCC(O)C=CC1C=CC(=O)C1CCCCCCC(=O)O (stereo not drawn) [15-epi Prostaglandin A1],scaled lipid accumulation score,[2],inactive: ≤ 0
COC(=O)C1=C(C)NC(C)=C(C(=O)OC2CCCN(Cc3ccccc3)C2)C1c1cccc([N+](=O)[O-])c1 (configuration not stated),scaled lipid accumulation score,[1],inactive: 0.032
COC(=O)C1=C(C)NC(C)=C(C(=O)OC2CCCN(Cc3ccccc3)C2)C1c1cccc([N+](=O)[O-])c1 (configuration not stated) [Benidipine HCl],scaled lipid accumulation score,[3],inactive: 0.027
same,scaled lipid accumulation score,[1],inactive: 0.476
CCNC(=O)CCC/C=C\C[C@@H]1[C@@H](/C=C/[C@@H](O)CCc2ccccc2)[C@H](O)C[C@@H]1O [Bimatoprost],scaled lipid accumulation score,[3],inactive: ≤ 0
same,scaled lipid accumulation score,[1],inactive: ≤ 0
COc1ccc(S(=O)(=O)Nc2cccnc2Nc2ccc(O)cc2)cc1,scaled lipid accumulation score,[4],inactive: ≤ -0.016
same,scaled lipid accumulation score,[5],inactive: ≤ -0.016
same,scaled lipid accumulation score,[6],inactive: ≤ -0.016
same,scaled lipid accumulation score,[3],inactive: 0.183
same,scaled lipid accumulation score,[1],inactive: 0.12 and inactive: 0.192
C[C@]12C[C@H](O)[C@H]3[C@@H](CCC4=CC(=O)CC[C@@]43C)[C@@H]1CC[C@@H]2C(=O)CO,scaled lipid accumulation score,[1],inactive: 0.039
C[C@]12C[C@H](O)[C@H]3[C@@H](CCC4=CC(=O)CC[C@@]43C)[C@@H]1CC[C@@H]2C(=O)CO [Corticosterone],scaled lipid accumulation score,,inactive: 0.166
same,scaled lipid accumulation score,library stock concentration: 5.8 mM,inactive: ≤ 0
same,scaled lipid accumulation score,[1],inactive: 0.132
Cc1ccc(NC(=O)c2cccc(N(C)C)c2)cc1NC(=O)c1ccc(O)cc1,scaled lipid accumulation score,[1],inactive: ≤ -0.004
CC1(C)O[C@@H]2C[C@H]3[C@@H]4CCC5=CC(=O)C=C[C@]5(C)[C@H]4[C@@H](O)C[C@]3(C)[C@]2(C(=O)CO)O1 [Desonide],scaled lipid accumulation score,[3],inactive: 0.006
same,scaled lipid accumulation score,[1],inactive: ≤ 0
CC1(C)O[C@@H]2C[C@H]3[C@@H]4CCC5=CC(=O)C=C[C@]5(C)[C@H]4[C@@H](O)C[C@]3(C)[C@]2(C(=O)CO)O1,scaled lipid accumulation score,[1],inactive: ≤ 0
O=C(O)c1ccc2c(c1)nc(Nc1cccc(Cl)c1)c1ccncc12,scaled lipid accumulation score,[5],inactive: ≤ -0.005
same,scaled lipid accumulation score,[6],inactive: ≤ -0.005
same,scaled lipid accumulation score,[1],inactive: ≤ -0.005
O=C(O)c1ccc2c(c1)nc(Nc1cccc(Cl)c1)c1ccncc12 [CX-4945 (Silmitasertib)],scaled lipid accumulation score,[3],inactive: ≤ 0
same,scaled lipid accumulation score,[1],inactive: ≤ 0
"c1ccc(-c2ccccn2)nc1 [2,2'-Bipyridyl]",scaled lipid accumulation score,[1],inactive: 0.067
COc1ccccc1N1CCN(CCN(C(=O)c2ccc(F)cc2)c2ccccn2)CC1 [p-MPPF dihydrochloride],scaled lipid accumulation score,[1],inactive: ≤ -0.055
O=C1CC(=O)c2c(Cl)c(Cl)c(Cl)c(Cl)c21,scaled lipid accumulation score,[3],inactive: ≤ -0.009
same,scaled lipid accumulation score,[1],inactive: 0.011
Nc1nonc1C(=Nc1ccc(F)c(Cl)c1)NO,scaled lipid accumulation score,[3],inactive: ≤ -0.009
same,scaled lipid accumulation score,[1],inactive: ≤ 0
Cl.Cl.O=S(=O)(NCCNC/C=C/c1ccc(Br)cc1)c1cccc2cnccc12 [H 89 dihydrochloride],scaled lipid accumulation score,[1],active: 1.26
NCCCCCNCC12CC3CC(CC(C3)C1)C2 [IEM 1754 dihydrobroMide],scaled lipid accumulation score,[3],inactive: 0.109
same,scaled lipid accumulation score,[1],inactive: 0.358
Oc1ccc(Cn2cc[nH]c2=S)cc1 [1-(4-Hydroxybenzyl)imidazole-2-thiol],scaled lipid accumulation score,[1],inactive: ≤ -0.07
Cc1ccccc1-c1cccc(N2CCC(N3CCN(C)C(C)C3)CC2)c1 (configuration not stated),scaled lipid accumulation score,[1],active: 1.05
CC(=O)N[C@@H](CS)C(=O)O [N-Acetyl-L-Cysteine],scaled lipid accumulation score,[1],inactive: ≤ 0
CC(=O)N[C@@H](CS)C(=O)O [Acetylcysteine],scaled lipid accumulation score,[3],inactive: ≤ 0
same,scaled lipid accumulation score,[1],inactive: ≤ 0
same,scaled lipid accumulation score,library stock concentration: 12.3 mM,inactive: 0.005
C[C@]1(c2nc3c(C(N)=O)cccc3[nH]2)CCCN1 [Veliparib (ABT-888)],scaled lipid accumulation score,[3],inactive: ≤ 0
same,scaled lipid accumulation score,[1],inactive: ≤ 0
C[C@]1(c2nc3c(C(N)=O)cccc3[nH]2)CCCN1 [Veliparib],scaled lipid accumulation score,[4],inactive: 0.0075
same,scaled lipid accumulation score,[5],inactive: ≤ -0.0045
same,scaled lipid accumulation score,[6],inactive: ≤ -0.0045
same,scaled lipid accumulation score,[1],inactive: ≤ -0.0045
"CCCCCC(=O)CC[C@H]1C(=O)C[C@H](O)[C@@H]1C/C=C\CCCC(=O)O [13,14-dihydro-15-keto Prostaglandin D2]",scaled lipid accumulation score,[2],inactive: ≤ 0
